The results in this text go back to PMC7819943, “Rice protein-binding microarrays: a tool to detect cis-acting elements near promoter regions in rice”.

The other results are listed elsewhere or left out.

In this assay the target is T1, OsWOX13 (Oryza sativa, UniProt Q5QMM3 1-267).
T1 sequence: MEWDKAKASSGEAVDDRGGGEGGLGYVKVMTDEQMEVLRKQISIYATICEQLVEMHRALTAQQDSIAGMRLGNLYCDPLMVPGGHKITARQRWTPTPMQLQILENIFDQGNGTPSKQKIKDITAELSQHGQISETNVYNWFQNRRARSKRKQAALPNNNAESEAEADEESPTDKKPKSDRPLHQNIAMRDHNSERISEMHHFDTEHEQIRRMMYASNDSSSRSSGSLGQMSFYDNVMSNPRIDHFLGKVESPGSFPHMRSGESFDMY
Kind of assay: protein-binding microarray (RPBM); PBS, 2% BSA, 51.3 ng/ul salmon testes DNA, 50 uM zinc acetate, 200 nM TF, 25 C, 1 h; high values mean tight binding. The following applies: protein: recombinant; tags: N-terminal polyhistidine and DsRed monomer fusion (pET32a); label: CyDye5-dUTP incorporated in the synthesized complementary strand; 3' TTTTT single-stranded linker to array surface; dsDNA, one strand shown. The essentials:
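In PBS with 2% BSA, salmon testes DNA and 50 µM zinc acetate, 200 nM protein was incubated on a custom Agilent array at 25 °C for 1 h and then washed off. The array had been made double-stranded by primer extension with Cy5-dUTP and blocked with 2% BSA. The proteins were transcription factors fused N-terminally to polyhistidine and DsRed, expressed in E. coli BL21-CodonPlus and purified on Ni–NTA. The binding signal is per-feature fluorescence intensity (arbitrary units) from an Axon 4000B scanner.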
For the sequence “ATATACTAAGTTACATTAATTTGTTATGTGCTAGTTGATACGGAGTCACCTAGTGCAG”, the binding signal was 3610 fluorescence intensity (a.u.).

Consider “CATAGATTACGTGTAAATTACAATGCGAATCTTTTAAACCCGGAGTCACCTAGTGCAG”, for which the binding signal was 19700 fluorescence intensity (a.u.).

“CTAATCAAATAGGTTGATTTTCTTCCAAATCTCAGATACCCGGAGTCACCTAGTGCAG”: the binding signal is 11500 fluorescence intensity (a.u.).

On to “TTATGATTACCATTTTAGTTTAACTATTTAAGTTTCCCAGCGGAGTCACCTAGTGCAG”, for which the binding signal was 52000 fluorescence intensity (a.u.).

In the case of “CGATAGGTCAATCAAGCCAATTAACATGTCAAAAGACCATCGGAGTCACCTAGTGCAG”, the binding signal was 30800 fluorescence intensity (a.u.).

As to “TCATTAATCCTGATTAGGTTTAGTGATACTGATGCACATACGGAGTCACCTAGTGCAG”, the binding signal is 6680 fluorescence intensity (a.u.).

In the case of “ATAAAATGTAAATTATGCTTAAAATGCTTTTAGTGATAAACGGAGTCACCTAGTGCAG”, the binding signal is 4750 fluorescence intensity (a.u.).

As to “TCTATGACTCGTTTATGATTACTTAATCTACCAGGCTCTTCGGAGTCACCTAGTGCAG”, the binding signal is 4830 fluorescence intensity (a.u.).

Turning to “CCTCGATAATATATTGAATGTCATTCAATAATTCTGATAACGGAGTCACCTAGTGCAG”, the binding signal was 4370 fluorescence intensity (a.u.).

For the sequence “ATAACCGTAATTACCGAGCGGTTGCGTGACTTGCTGTTGCCGGAGTCACCTAGTGCAG”, the binding signal is 14100 fluorescence intensity (a.u.).

As for “AGCAATAGACTAGATTAATAGTAAACCACCTCAATAGTATCGGAGTCACCTAGTGCAG”, the binding signal was 7680 fluorescence intensity (a.u.).

“ATATACAAAATTTGTTAATCACAAAATATATAACACATATCGGAGTCACCTAGTGCAG”: the binding signal was 6780 fluorescence intensity (a.u.).

With “GCGGTTTTGTCGATAATCATGATTGTTAGTACTCGACAATCGGAGTCACCTAGTGCAG”, the binding signal is 8170 fluorescence intensity (a.u.).

In the case of “TAAAATGAAGAGATGATTGTGCAAGCTTGTGGATGGGCCCCGGAGTCACCTAGTGCAG”, the binding signal was 18300 fluorescence intensity (a.u.).

For “CAAAATGCTTTGACTGGATAGGATAAAACCATCTGGCCGCCGGAGTCACCTAGTGCAG”, the binding signal is 3500 fluorescence intensity (a.u.).

With “AGGTGATTTACTATTAATCTAGTCTATTGCTGAGATGTACCGGAGTCACCTAGTGCAG”, the binding signal was 36900 fluorescence intensity (a.u.).

Consider “CATAATCCATCAATCATTCATTCCTAGCTCACATAAGACTCGGAGTCACCTAGTGCAG”, for which the binding signal is 18300 fluorescence intensity (a.u.).

In the case of “CTCAGCTGTTAAGCTGAGTGATTAACTCTTAAGCAATCACCGGAGTCACCTAGTGCAG”, the binding signal was 5130 fluorescence intensity (a.u.).

As to “TCAGATTGATCAACTCAAGCAGTCAGGGTCGGTGAATGAGCGGAGTCACCTAGTGCAG”, the binding signal is 27300 fluorescence intensity (a.u.).

Regarding “CAACCCTGATTGTTGGGGTACCAGCTTATATTTCACATTTCGGAGTCACCTAGTGCAG”, the binding signal is 12900 fluorescence intensity (a.u.).

Regarding “ATTTAATTATTTATATACTTAATTAGATAATCTATAATAACGGAGTCACCTAGTGCAG”, the binding signal was 22100 fluorescence intensity (a.u.).

For the sequence “CAAAATCATTTATATTATGGGACGGAGGGAGTACAAACTACGGAGTCACCTAGTGCAG”, the binding signal is 3970 fluorescence intensity (a.u.).

As to “AATTAATTGATATGTAATAAATGAGTGGATGTTTACTACTCGGAGTCACCTAGTGCAG”, the binding signal was 47200 fluorescence intensity (a.u.).

Regarding “ATAATGTGATTGCCGGTGTTGTATCTATATCCGGAGGCTCCGGAGTCACCTAGTGCAG”, the binding signal was 14500 fluorescence intensity (a.u.).

In the case of “ATAATTGTAATATAATTCCACTATAATTGTAATATGACTTCGGAGTCACCTAGTGCAG”, the binding signal was 16200 fluorescence intensity (a.u.).

As to “CCAAGATTTGCCGCGACGATAAATCCTCTCGTTTCTCCGCCGGAGTCACCTAGTGCAG”, the binding signal is 3190 fluorescence intensity (a.u.).

On to “TCTACAAATTAAGCTCTTAGTACTGACACAATCCAGCAGTCGGAGTCACCTAGTGCAG”, for which the binding signal was 3640 fluorescence intensity (a.u.).

In the case of “CAATTGTAAATTTACCACGGTTTTGAATCGTTATTGCGAACGGAGTCACCTAGTGCAG”, the binding signal is 7620 fluorescence intensity (a.u.).

As to “CTTCGTCAAATTAAACTAATCTAGTATAAGATTGGAACATCGGAGTCACCTAGTGCAG”, the binding signal is 11400 fluorescence intensity (a.u.).

For “TAGAGAATAATTAATTGAGTATTGTTATTACAAATTTAAACGGAGTCACCTAGTGCAG”, the binding signal was 7440 fluorescence intensity (a.u.).

As to “TGTATAATTTCACCGTATTATGTACTTTGATAGTGTCTGTCGGAGTCACCTAGTGCAG”, the binding signal is 5000 fluorescence intensity (a.u.).

As to “ACTAATTGCACAGTTACAGTAACCCACATATAATAATAATCGGAGTCACCTAGTGCAG”, the binding signal is 34000 fluorescence intensity (a.u.).

For the sequence “CCTGCCAATTAAAATTAAATTGAATTTAAAGTGCACTCTTCGGAGTCACCTAGTGCAG”, the binding signal was 39800 fluorescence intensity (a.u.).

As to “ATCCAATCCAATCCAATCAAATCACATCGATCGACGCCGCCGGAGTCACCTAGTGCAG”, the binding signal was 35300 fluorescence intensity (a.u.).

Regarding “CCCTTGTTTCTGTTTTGATTGCAACCTAAGAGACTCTTGACGGAGTCACCTAGTGCAG”, the binding signal is 6270 fluorescence intensity (a.u.).

Consider “TAATTGATTTGGGATTCAGTTTATCCACCGATTCCTCCGCCGGAGTCACCTAGTGCAG”, for which the binding signal was 48700 fluorescence intensity (a.u.).

Consider “ATTACACAGATTGCATGTAAATTGCGATACAAATCTTTTACGGAGTCACCTAGTGCAG”, for which the binding signal was 4760 fluorescence intensity (a.u.).

In the case of “AAATAACTAATTACACAGATTGCGACTAGTTTGAGAGATGCGGAGTCACCTAGTGCAG”, the binding signal is 30300 fluorescence intensity (a.u.).

Turning to “AGGAATTTATCATGATTATTGCTCATCTCAATAACAATTCCGGAGTCACCTAGTGCAG”, the binding signal was 27400 fluorescence intensity (a.u.).

Regarding “CCATGATTGCTAAAAGTTTGCATTCGACCCCTTCCCTAATCGGAGTCACCTAGTGCAG”, the binding signal was 13000 fluorescence intensity (a.u.).

With “AAGTTAAACCACTTTAAATTAACTAGATTTATTTATAGGACGGAGTCACCTAGTGCAG”, the binding signal was 6280 fluorescence intensity (a.u.).

In the case of “ATTAAATTTATTATTAAAATAGATAATAATTCGTGAAAACCGGAGTCACCTAGTGCAG”, the binding signal is 12800 fluorescence intensity (a.u.).
